Hit rate of the full screen: of about 45,000 compounds, about 65 (0.1%) were called active. Calls follow the shape of the dose curve; as a rule, active = well fitted activation curve with a large enough effect; inconclusive = small, poorly fitted or top-dose-only effect; inactive = no such curve, though single readings can be large or run the other way. Some of the results follow.

UniProt P54803, sequence (P54803 whole entry, looked up): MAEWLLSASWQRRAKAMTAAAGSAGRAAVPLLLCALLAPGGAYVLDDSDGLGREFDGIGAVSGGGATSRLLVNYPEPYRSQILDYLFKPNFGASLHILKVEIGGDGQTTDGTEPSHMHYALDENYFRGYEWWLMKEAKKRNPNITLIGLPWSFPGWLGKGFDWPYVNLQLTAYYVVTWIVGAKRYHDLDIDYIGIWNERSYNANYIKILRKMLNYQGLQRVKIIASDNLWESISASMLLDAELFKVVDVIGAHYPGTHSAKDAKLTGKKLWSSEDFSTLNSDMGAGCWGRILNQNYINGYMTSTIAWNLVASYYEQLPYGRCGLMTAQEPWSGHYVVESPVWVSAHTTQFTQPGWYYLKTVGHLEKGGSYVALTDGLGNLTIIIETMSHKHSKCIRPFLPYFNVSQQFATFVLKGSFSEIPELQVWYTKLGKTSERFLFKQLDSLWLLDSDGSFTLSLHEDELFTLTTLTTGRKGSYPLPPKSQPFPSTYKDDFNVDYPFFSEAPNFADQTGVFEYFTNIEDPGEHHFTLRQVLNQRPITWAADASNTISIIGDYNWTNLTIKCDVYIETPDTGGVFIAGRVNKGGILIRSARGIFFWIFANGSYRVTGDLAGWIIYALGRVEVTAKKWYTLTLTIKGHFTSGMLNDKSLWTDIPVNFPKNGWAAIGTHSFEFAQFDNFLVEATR

This assay concerns the target Galactocerebrosidase (Homo sapiens) (UniProt P54803). The assay can be described thus: A Novel Cell-Based Assay to Identify Small Molecules for B -Galactocerebrosidase. Also: 0% is about no effect; nearly all actives have a fitted effect of over 65% in size. Conditions: 145M-Twi-hGALC-G270D cells (Twitcher mouse brain line with human GALC G270D), HMU-beta-Gal fluorescence, 48 h; series mostly up to 57.5 µM; activation: at the top concentration. The essentials:
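Brain-derived Twitcher mouse 145M-Twi cells stably expressing human GALC-G270D or wild-type GALC, treated live, then residual GALC activity read by fluorescence of HMU-b-Gal substrate (0.1 mM final) in citrate-phosphate buffer pH 5.2 with sodium taurocholate. Signal increase indicates enhancement.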
Regarding `Cc1cc(C)cc(NC(=O)CCS(=O)(=O)c2cc3c4c(c2)CCN4C(=O)CC3)c1`, the “activation” value was inactive: -19.8%.
As for `CC(C)COc1ccc(C(=O)Nc2cccc(-c3nc4ccccc4[nH]3)c2)cc1`, the “activation” value was inactive: -36.9%.
Turning to `CCc1ccc(OC(C)C(=O)N2CCC(c3nc4ccccc4s3)CC2)cc1` (stereo unspecified), the “activation” value is inactive: -12%.
In the case of `O=C(CSc1nnc(-c2ccccc2)c(-c2ccccc2)n1)NC1CCCCC1`, the “activation” value was inactive: -1.14%.
Next, `CCOc1ccc(-c2nonc2NC(=O)c2oc3ccc(Br)cc3c2C)cc1`: inactive: -16%; `Cc1nc(N2C(=O)c3oc4ccccc4c(=O)c3C2c2cccc(OCCC(C)C)c2)sc1C` (stereo unspecified): inactive: -4.33%; `CCOC(=O)N1CCc2c(sc(NCc3cccc(F)c3)c2C(=O)Nc2ccccc2OCC)C1`: inactive: -5.21%.
Regarding `Cc1ccc(N2CC(NC(=O)Cc3cccs3)CC2=O)cc1C` (stereo unspecified), the “activation” value was inactive: 0.199%.
In the case of `CCOc1ccccc1NC(=O)C1CCCN(S(=O)(=O)c2c(C)[nH]c(=O)[nH]c2=O)C1` (stereo unspecified), the “activation” value was inactive: -3.24%.
For `CCOc1ccc(/C=C(\C#N)c2nc3ccccc3c(=O)[nH]2)cc1OC`, the “activation” value is inactive: 0.919%.
Next, `COC(=O)c1nnn(CC(=O)NC(=O)Nc2cccc(C)c2C)c1C(=O)OC`: inactive: -13.9%.
For `CCc1nc2ccc(C(=O)N3CCN(c4ccccc4)CC3)cc2nc1CC`, the “activation” value is inactive: -17.1%.
Next, `O=C(O)c1cn(-c2ccc(F)cc2)c2cc(N3CCNCC3)c(F)cc2c1=O`: inactive: -8.04% [at 23.8 µM].
As to `CCOc1cc(-c2nnc(SCC(=O)Nc3ccc(F)c(F)c3)nc2-c2ccc(OC)c(OCC)c2)ccc1OC`, the “activation” value is inactive: -8.13%.
Turning to `CCC(=O)Nc1nnc(SCc2cc(=O)c3cc(C)ccc3[nH]2)s1`, the “activation” value is inactive: 0.483%.
Next, `CC(=O)N1CCc2c(sc3c2c(=O)n(-c2ccccc2)c(=O)n3CC(=O)Nc2cccc(C)c2)C1`: inactive: -13.2%; `CCOc1ccc(CNS(=O)(=O)c2c(C(=O)N3CCC(C)CC3)c(C)n(C)c2C)cc1OC`: inactive: 3.55%.
For the compound `Cc1c(C(=O)OC2CCCC2)[nH]c2c1C(=O)CC(c1ccc(Cl)cc1)C2` (stereo unspecified), the “activation” value is inactive: -22.2%.
Next, `COc1ccccc1CNC(=O)CCC1N=C2c3ccccc3N=C(SCc3cccc(Cl)c3)N2C1=O` (stereo unspecified): inactive: -14.3%.
Next, `CC(C)N(C(=O)CSc1nc2ccc(Cl)cc2[nH]1)c1ccccc1`: inactive: -14.4%; `COc1ccccc1CNC(=O)CCCc1nnc2n(CC(C)C)c(=O)c3sccc3n12`: inactive: -3%; `COc1ccc(-c2cc3nc(-c4ccc(C)cc4)cc(C(F)(F)F)n3n2)cc1`: inactive: -6.87%.
Take `CCOc1ccc(OCC)c(NS(=O)(=O)c2cc(Br)cc3c2N(C(C)=O)C(C)C3)c1` (stereo unspecified): the “activation” value was inactive: -38.4%.
Next, `O=C(c1ccc(F)cc1)N1c2nc(-c3ccco3)nn2C2(CCCCC2)[C@@H]2CCCC[C@@H]21`: inactive: -9.25%; `Cc1c(Cl)cccc1NC(=O)Cn1c(CCC(=O)O)ccc1-c1cccs1`: inactive: -7.36%.
Next, `CCOC(=O)c1c(NC(C)=O)c2c3c(sc2n1Cc1nc(-c2cccc(Cl)c2)oc1C)CCCC3`: inactive: -8.3%.
Consider `CCOc1ccc(-c2cccc(NS(=O)(=O)c3c(C)cc(C)cc3C)c2)nn1`, for which the “activation” value is inactive: -12.6%.
Next, `COc1ccccc1CCNC(=O)C(=O)NCC(c1ccc2c(c1)OCO2)N1CCOCC1` (stereo unspecified): inactive: -16.3%; `CC(=O)c1cccc(NC(=O)c2sc(-n3nc(C)c(Cc4ccc5c(c4)OCO5)c3C)nc2C)c1`: inactive: 19.1%.
Next, `Cc1ccc2oc3c(c(=O)c2c1)C(c1ccc(F)cc1)N(Cc1ccc2c(c1)OCO2)C3=O` (stereo unspecified): inactive: -18.4%; `COc1cccc(CNC(=O)C(=O)Nc2c3c(nn2-c2ccccc2)CSC3)c1`: inactive: -5.5%; `CCN(C(=O)C1CCN(S(=O)(=O)c2ccc3c(c2)CCCN3C(C)=O)CC1)c1cccc(C)c1`: inactive: -15%.
Next, `COc1ccccc1OCC(=O)NCC(c1ccc(Cl)cc1)N1CCCCC1` (stereo unspecified): inactive: -11.6%; `CCOc1cc(C(=O)NCCc2csc3nc(-c4ccc(C)cc4)nn23)cc(OCC)c1OCC`: inactive: -22.2%; `COC(=O)c1ccccc1NC(=O)CSc1nc2ccsc2c(=O)n1CCC(C)C`: inactive: -11.2%.
On to `COc1ccc(OC)c(-c2nnc3n(Cc4ccc(C)cc4)c(=O)c4ccccc4n23)c1`, for which the “activation” value was inactive: -8.42%.
Turning to `Cc1c(-c2ccc(Br)cc2)c(=O)oc2ccc(OC(=O)N3CCOCC3)cc12`, the “activation” value was inactive: -2.11%.
Consider `CCN(CC)C(=O)CSc1nc(-c2ccccc2F)nc2c1Cc1c(CO)cnc(C)c1O2`, for which the “activation” value was inactive: -10.8%.
As to `CC(C)(C)OC(=O)N1CCC(c2c(C(=O)N3CCCCC3)cnn2-c2ccc(Cl)cc2)CC1`, the “activation” value is inactive: -12.9%.
Next, `Cc1cccc(Cn2c(CNS(=O)(=O)c3ccc4c(c3)CCCC4)nc3cccnc32)c1`: inactive: -5.58%; `C[C@@H]1C[C@H]2[C@@H]3C[C@H](F)C4=CC(=O)C=C[C@]4(C)[C@@]3(F)[C@@H](O)C[C@]2(C)[C@@]1(O)C(=O)CO`: inactive: -10.9%; `Cc1c(Cl)cccc1-c1ccc(C(=O)Nc2ccc(F)cc2)o1`: inactive: -8.11%.
For the compound `COc1ccc(Cc2nc3ccccc3[nH]c2=O)cc1`, the “activation” value was inactive: 1.69%.
Turning to `C=Cc1ccc(Cn2c(C)c(CNCc3cccc(Br)c3)c(C(=O)O)c2C)cc1`, the “activation” value was inactive: -10.4%.
Next, `COc1ccc(F)cc1S(=O)(=O)NCCc1csc2nc(-c3cccc(C)c3)nn12`: inactive: -17.2%; `CCOC(=O)c1c(S(=O)(=O)N2CCCC(C(=O)NCc3ccc(Cl)cc3)C2)c(C)n(C)c1C` (stereo unspecified): inactive: -15.2%.
Next, `COC(=O)c1ccc(OCC2c3cc(OC)c(OC)cc3CCN2C(=O)COc2ccc(Cl)cc2)cc1` (stereo unspecified): inactive: -23%.
Next, `O=C(c1ccccc1Cl)N1c2ncnn2C2(CCCCC2)[C@@H]2CCCC[C@@H]21`: inactive: -1.45%; `CCOC(=O)C1CCCN(C(=O)c2nn(-c3ccc(OC)cc3)c(=O)c3c2c2ccccc2n3C)C1` (stereo unspecified): inactive: -9.94%; `Nc1nc(Nc2ccccc2F)sc1C(=O)c1ccc(Cl)cc1`: inactive: -15.9%.
Regarding `CCc1cccc(NC(=O)C2CCN(C(=O)c3cnn(-c4ccccc4)c3-n3cccc3)CC2)c1`, the “activation” value was inactive: -3.68%.
Next, `CCOC(=O)c1noc2ncn(CC(=O)Nc3ccc(C)c(F)c3)c(=O)c12`: inactive: -5.2%.
On to `Cc1cccc(NC(=O)CCS(=O)(=O)c2ccc3c(c2)n(C)c(=O)c(=O)n3C)c1C`, for which the “activation” value is inactive: 1.58%.
As to `Cc1c(C(=O)N(Cc2ccccc2F)C2CCS(=O)(=O)C2)oc2ccc(F)cc12` (stereo unspecified), the “activation” value was inactive: -17%.
Next, `Cc1ccc(-n2c(=O)c3c(C)c(C(=O)N(C)C)sc3n(CC(=O)C(C)(C)C)c2=O)cc1C`: inactive: -14.1%.
`O=c1cc(-c2ccccc2)n2c(SCc3ccccc3)nnc2[nH]1`: the “activation” value is inactive: -13.9%.
For the compound `CCc1ccc(-n2nc(C)c3c(C)cc(=O)n(CC(=O)N4CCCc5ccccc54)c32)cc1`, the “activation” value is inactive: -9.88%.
Next, `Cc1cc2c(cc1CC(=O)c1sccc1S(=O)(=O)Nc1onc(C)c1Cl)OCO2`: inactive: -16.3%; `CN(c1ncnc2onc(-c3cccc(Cl)c3)c12)C1CCCCC1`: inactive: -6.68%.
For the compound `CCc1ccc(-n2nc3cc(C)c(NC(=O)c4cccc5ccccc45)cc3n2)cc1`, the “activation” value is inactive: -10.7%.
`O=C(O)Cc1ccc(-c2ccccc2)cc1`: the “activation” value was inactive: -12.3%.
As to `COc1ccc(N2CC(NC(=O)COc3ccccc3)CC2=O)cc1OC` (stereo unspecified), the “activation” value is inactive: -0.929%.
For the compound `Cn1c(=O)c2c(SCC(=O)NCc3ccco3)nc(-c3ccccc3)nc2n(C)c1=O`, the “activation” value was inactive: -15.6%.
For the compound `CCOC(=O)c1cnc2ccc(OC)cc2c1NCCc1ccccc1`, the “activation” value was inactive: -29.9%.
Next, `Cn1c(=O)c2c(nc(NCc3ccccc3)n2Cc2ccccc2)n(C)c1=O`: inactive: -0.224%.
With `CC1CCn2c(nc3cc(C(=O)NCCc4ccc(Cl)cc4)ccc32)C1` (stereo unspecified), the “activation” value was inactive: -7.77%.
For the compound `Cc1ccc(-n2nc(CO)c(C(=O)NCc3ccccn3)n2)cc1C`, the “activation” value is inactive: -4.61%.
Next, `CC(C)c1cccc(C(C)C)c1NC1=NS(=O)(=O)c2ccccc21`: inactive: -10.7%; `COc1ccccc1NC(=O)NCCN1CCN(c2cccc(Cl)c2)CC1`: inactive: -15.8%; `O=C(Cc1ccccc1)Nc1cccc(-c2cn3cccnc3n2)c1`: inactive: -5.61%.
Next, `Cc1ccc(NC(=O)C2CCN(c3nc4ccccc4[nH]3)CC2)c(C)c1`: inactive: 5.69%; `COC(=O)c1cnc(N2CCN(c3ccccc3F)CC2)c2ccccc12`: inactive: 25.9%; `COc1ccc(OC)c(NC(=O)c2c(NCc3cccs3)sc3c2CCCC3)c1`: inactive: -18.9%.
Next, `Cc1ccc(Cn2c(=O)n(CCCC(=O)NCc3ccccc3Cl)c(=O)c3ccccc32)cc1`: inactive: 16.6%; `Cc1cccc(N2CCN(C(=O)CCc3c(C)nc4ncnn4c3C)CC2)c1C`: inactive: -13.5%.
Take `CCc1ccccc1NC(=O)c1cc(S(=O)(=O)N2CCCC2)cn1C`: the “activation” value was inactive: -8.3%.
Regarding `COCCN1C(=O)c2[nH]nc(-c3cc(C)ccc3O)c2C1c1ccc(C(C)C)cc1` (stereo unspecified), the “activation” value was inactive: -20.3%.
On to `CCOc1ccccc1NC(=O)c1cc2c(=O)oc3ccccc3c2s1`, for which the “activation” value was inactive: -12.3%.
On to `Cc1cncn1CCc1nc2c3ccccc3nc(SCC(=O)Nc3cccc(Cl)c3)n2n1`, for which the “activation” value was inactive: -17.3%.
Consider `O=C(c1ccc(CSc2nc3ccncc3n2Cc2cccc(F)c2)cc1)N1CCCCCC1`, for which the “activation” value is inactive: -3.36%.
Next, `CN(CC(=O)Nc1cccc(C(F)(F)F)c1)S(=O)(=O)c1cccs1`: inactive: -1.44%; `COc1ccc(OC)c(NC(=O)CN2C(=O)COc3ccc(S(=O)(=O)NC4CCCC4)cc32)c1`: inactive: 0.843%; `Cc1ccc(CNS(=O)(=O)c2cc3c(cc2C)NC(=O)CO3)cc1`: inactive: -8.8%.
Regarding `Cc1cccc(C)c1-n1ncc(C(=O)N2CCN(c3ccccc3)CC2)c1C1CCN(C(=O)OC(C)(C)C)CC1`, the “activation” value is inactive: 13.1%.
For the compound `COC(=O)C(C)Sc1ncnc2c1c(-c1ccccc1)cn2-c1ccc(F)cc1` (stereo unspecified), the “activation” value is inactive: -5.65%.
Take `CCOc1ccc(S(=O)(=O)Nc2ccc3c(c2)N(C(C)=O)CCC3)cc1`: the “activation” value was inactive: -8.04%.
Next, `O=C(Cn1c(-c2cccs2)cc2ccccc21)NCCc1ccc(Cl)cc1`: inactive: 3.18%; `COCCCNC(=O)CSc1nc2cc(OC)c(OC)cc2c2nc(-c3ccccc3)nn12`: inactive: -13.6%; `CC1CCCN(C(=O)c2cc3c(Cl)nc4ccccc4c3s2)C1` (stereo unspecified): inactive: -11.1%.
Regarding `O=C(c1ccco1)c1cn(CCOc2ccc(F)cc2)c2ccccc12`, the “activation” value is inactive: -18.6%.
Next, `Cc1ccc(OCc2nc3ccccc3n2CCOc2ccc(Cl)cc2)cc1`: inactive: -2.58%; `CS(=O)(=O)CCC(C(=O)Nc1cccc(C(F)(F)F)c1)N1Cc2ccccc2C1=O` (stereo unspecified): inactive: -4.38%; `CC1CCCCN1c1nnc(NC(=O)Nc2ccccc2F)s1` (stereo unspecified): inactive: -2.46%.
As for `Cc1ccc(/C=C/c2nc3ccccc3[nH]2)cc1`, the “activation” value was inactive: -13.5%.
Regarding `CC(C)COc1ccc(C(=O)N(Cc2ccc(N(C)C)cc2)Cc2ccco2)cc1`, the “activation” value is inactive: -16.4%.
Next, `CCc1ccc(NC(=O)CCS(=O)(=O)c2ccc3c(c2)n(C)c(=O)c(=O)n3C)cc1`: inactive: 2.12%.

The values above are taken from PubChem BioAssay AID1159614 (National Center for Advancing Translational Sciences (NCATS), 2016).
